The full ranking holds about 33,000 sequences; the median of “E-score (-0.5 to 0.5)” is about -0.012, and the highest 2% start at about 0.27. The list shows a part of the results.
Molecular target: T1, Vhr1 (UniProt P40522)
T1 sequence: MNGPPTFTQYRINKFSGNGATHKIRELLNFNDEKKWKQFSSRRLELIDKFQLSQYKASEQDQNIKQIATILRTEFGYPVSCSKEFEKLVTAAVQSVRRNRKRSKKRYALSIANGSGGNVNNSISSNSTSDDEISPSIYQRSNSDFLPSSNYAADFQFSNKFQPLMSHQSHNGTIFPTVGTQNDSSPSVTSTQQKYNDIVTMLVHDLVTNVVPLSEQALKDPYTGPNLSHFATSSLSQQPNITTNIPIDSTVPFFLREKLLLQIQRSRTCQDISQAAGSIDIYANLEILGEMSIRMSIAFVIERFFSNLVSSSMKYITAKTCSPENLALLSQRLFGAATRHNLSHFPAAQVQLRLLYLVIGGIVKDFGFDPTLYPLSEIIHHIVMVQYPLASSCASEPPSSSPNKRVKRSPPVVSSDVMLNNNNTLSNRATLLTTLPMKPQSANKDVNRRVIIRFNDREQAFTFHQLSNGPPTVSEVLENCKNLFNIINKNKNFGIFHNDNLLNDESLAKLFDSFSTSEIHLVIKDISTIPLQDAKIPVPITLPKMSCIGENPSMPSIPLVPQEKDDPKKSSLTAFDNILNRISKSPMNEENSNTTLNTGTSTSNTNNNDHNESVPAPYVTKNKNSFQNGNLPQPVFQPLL
Experiment: PBM E-score (8-mer binding enrichment) (E-score (-0.5 to 0.5)); higher = stronger / more preferred TF binding; most listed sequences are background and not binding sites
Details: protein concentration: 200 nM; construct: GST-full length
Description: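 Universal 'all 10-mer' protein binding microarrays (Agilent AMADID 015681) probed with GST-tagged S. cerevisiae TFs (full-length or DBD) made by in vitro transcription/translation (PURExpress), about 100-200 nM. Bound TF was detected with fluorescent anti-GST. Each ungapped 8-mer (which stands for itself and its reverse complement) is scored by the PBM enrichment score (E-score), a modified Wilcoxon-Mann-Whitney statistic from -0.5 to +0.5, computed with the Universal PBM Analysis Suite. Scale: above 0.35 generally sequence-specific binding.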

Row | Sequence | PBM E-score
1 | CAATGGTA | 0.129
2 | ACTGTGTC | 0.125
3 | ACGAACAA | -0.0446
4 | AATTAGGG | -0.114
5 | AGTGTAAC | -0.0587
6 | CACGCACA | 0.0774
7 | GCCACACA | 0.152
8 | GAAGAATA | -0.201
9 | CGGGGACG | 0.0859
10 | TGGATGAA | -0.0248
11 | CGCCCCCG | -0.0889
12 | ACTTACGC | -0.0448
13 | GACTCTGA | 0.252
14 | GTCGGGGA | 0.101
15 | AAGGCCCC | -0.385
16 | GCAGGCGC | -0.0603
17 | ATTCGAAC | 0.055
18 | GCGCACGC | 0.00055
19 | ATACTCGG | 0.132
20 | AAGAATAC | 0.0498
21 | AGTGTTTC | -0.109
22 | TGCTCACA | 0.0508

Row | Sequence | PBM E-score
23 | AGTTGAAC | 0.007
24 | CCGAGGAG | 0.0404
25 | CGGAGTAG | -0.0207
26 | AGATAGCT | -0.202
27 | GACAATTA | 0.056
28 | ACGAGGCG | 0.0194
29 | GCACCCAA | -0.0528
30 | ATGGGTTG | 0.229
31 | CTAAGCAG | 0.0326
32 | TCAATCCA | 0.0906
33 | GCGATCAA | -0.0459
34 | GTCATGTA | 0.141
35 | GATTGGCA | -0.056
36 | ACCAGCAA | 0.118
37 | CTACCCTC | 0.0437
38 | ACGAGCCT | -0.0437
39 | AGCTAGAC | -0.0711
40 | CGTAGGCC | -0.0834
41 | GCCCTCGA | -0.151
42 | AGCGTATC | -0.0457
43 | GGACTTAC | -0.163
44 | ATGAGATA | 0.134

Row | Sequence | PBM E-score
45 | CCCGTCTC | 0.168
46 | TCCGAGGA | -0.0878
47 | CCGGTCCG | 0.112
48 | CCAGCAAC | 0.00595
49 | CGGATTTA | 0.0743
50 | AGAGGCAT | 0.0247
51 | AGACATAC | 0.18
52 | ACTCCGGC | 0.24
53 | GATGCTAA | -0.15
54 | AAGCATAA | -0.0698
55 | GACAACTA | -0.0145
56 | ATCGTAGC | 0.0741
57 | AAAGAGAC | -0.0829
58 | ATGCATCG | 0.0603
59 | AGTGTGAA | 0.0173
60 | AGCGTCCG | -0.0168
61 | GAATGTTA | -0.0495
62 | AATTTAGG | 0.0535
63 | ACGGCGAC | 0.0771
64 | TATTTCCA | -0.0666
65 | CGGAGCCC | -0.187
66 | AGAAGACA | -0.187

Row | Sequence | PBM E-score
67 | AGGAGAGC | -0.236
68 | CTATAGCA | -0.0305
69 | AAGCGTTG | -0.0505
70 | ACCGTGAC | 0.225
71 | ACTTGACC | -0.18
72 | CGTGGTAC | 0.0596
73 | AAAAATGG | -0.146
74 | TCCATACA | 0.0932
75 | ATACAGTA | 0.133
76 | CCGGGCAG | 0.108
77 | CAGCCGCG | 0.222
78 | CTCCGGTC | 0.163
79 | GAATGGCC | -0.0334
80 | CAGTCGTC | -0.0857
81 | CATCGAGC | 0.0195
82 | CCTCCTGA | -0.0681
83 | GGCTCACA | 0.0821
84 | GACACGTA | -0.0499
85 | CAGCGTAG | -0.0211
86 | CATGTCGG | 0.178

— the supplement of paper PMC3334620
